Test results from PubChem BioAssay AID222 (DTP/NCI, 2004).
Inconclusive results and toxic doses are left out. For part of its entries the source gives two or more results. This list holds those alone. An entry can have further records. Values that stand side by side repeat one measurement in other runs, samples, wells, individuals or studies.

Tested on: C57BL/6 mice, intracerebral ependymoblastoma, median survival T/C
Assay: NCI In Vivo Anticancer Drug Screen. Data for tumor model Ependymoblastoma (intracerebral) in C57BL/6 mice
Conditions: endpoint: median survival time, higher = longer survival
Procedure: The antitumor activity of compounds was measured in mice bearing transplantable tumors. Survival or tumor size were measured and the results are expressed as the measurement made in the treated group (T) divided by the measurement made in the vehicle treated control group (C). The tumor model used in this assay is Ependymoblastoma (intracerebral) in C57BL/6 mice

**Q.** Which T/C (dose: 1.0 mg/kg/injection, schedule: Q03HX008 (ip), vehicle: saline) does the source give for `O=NN(CCCl)C(=O)NCCCl` here?
**A.** Its T/C is 120 % of control and 160 % of control.

**Q.** And the T/C (dose: 2.0 mg/kg/injection, schedule: Q01DX005 (ip), vehicle: alcohol)?
**A.** The T/C was 88 % of control, 113 % of control, 161 % of control.

**Q.** And the T/C (dose: 8.0 mg/kg/injection, schedule: Q08DX002 (ip), vehicle: saline)?
**A.** Its T/C is 120 % of control and 184 % of control.

**Q.** What about the T/C (dose: 32.0 mg/kg/injection, schedule: Q08DX002 (ip), vehicle: saline) of the same molecule?
**A.** The T/C was 103 % of control and 158 % of control.

**Q.** How did the T/C (dose: 400.0 mg/kg/injection, schedule: Q01DX001 (ip), vehicle: water) turn out when `O=P1(NCCCl)OCCCN1CCCl` (stereo unspecified) was run?
**A.** The T/C was 124 % of control and 168 % of control.

**Q.** How did the T/C (dose: 14.0 mg/kg/injection, schedule: Q01DX001 (ip), vehicle: other) turn out when `O=NN(CCCl)C(=O)NC1CCC(=O)NC1=O` (stereo unspecified) was run?
**A.** Its T/C is 99 % of control and 313 % of control.
